Assay results taken from PubChem BioAssay AID1159614 (National Center for Advancing Translational Sciences (NCATS), 2016).
Screen size: about 45,000 compounds; about 65 (0.1%) were called active. Calls come from the whole dose curve; as a rule, active = well fitted activation curve with a large enough effect; inconclusive = small, poorly fitted or top-dose-only effect; inactive = no such curve, though single readings can be large or run the other way. This is one part of the list.

The compounds below were run against Galactocerebrosidase (Homo sapiens) (UniProt P54803) (assay: A Novel Cell-Based Assay to Identify Small Molecules for B -Galactocerebrosidase). Conditions: 145M-Twi-hGALC-G270D cells (Twitcher mouse brain line with human GALC G270D), HMU-beta-Gal fluorescence, 48 h; series mostly up to 57.5 µM; activation: at the top concentration.
Method in brief: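 Mutant human GALC (G270D), stably expressed in a Twitcher mouse brain cell line lacking endogenous GALC, is measured in live-treated cells via 6-hexadecanoylamino-4-methylumbelliferyl-β-galactoside hydrolysis (0.1 mM final, pH 5.2) with fluorescent detection.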
Note: 0% is about no effect; nearly all actives have a fitted effect of over 65% in size.

Chain of UniProt P54803 (P54803 whole entry, looked up): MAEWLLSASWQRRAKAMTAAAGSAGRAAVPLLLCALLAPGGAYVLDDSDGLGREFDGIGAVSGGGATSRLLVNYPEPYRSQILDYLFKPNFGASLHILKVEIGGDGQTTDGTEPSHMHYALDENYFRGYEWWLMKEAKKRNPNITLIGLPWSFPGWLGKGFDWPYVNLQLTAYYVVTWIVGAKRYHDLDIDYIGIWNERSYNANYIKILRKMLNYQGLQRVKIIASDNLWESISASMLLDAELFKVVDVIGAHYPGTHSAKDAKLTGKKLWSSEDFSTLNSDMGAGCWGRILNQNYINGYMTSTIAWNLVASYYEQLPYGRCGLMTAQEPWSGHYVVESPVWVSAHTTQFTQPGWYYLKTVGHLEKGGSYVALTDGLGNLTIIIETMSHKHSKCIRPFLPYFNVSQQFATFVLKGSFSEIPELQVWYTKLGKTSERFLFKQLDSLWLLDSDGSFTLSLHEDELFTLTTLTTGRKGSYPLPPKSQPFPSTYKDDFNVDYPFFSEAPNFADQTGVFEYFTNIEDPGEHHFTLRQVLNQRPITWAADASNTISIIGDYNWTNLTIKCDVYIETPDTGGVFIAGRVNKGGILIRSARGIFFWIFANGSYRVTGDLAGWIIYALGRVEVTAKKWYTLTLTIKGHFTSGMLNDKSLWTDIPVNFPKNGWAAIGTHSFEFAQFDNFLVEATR

activation, inactive:
CCN(CC)S(=O)(=O)c1ccc2c(c1)nc(CN(C)C(=O)Nc1ccc(C)c(Cl)c1)n2C -15.7%
Cc1nc2c3cccnc3nn2c(C)c1CCC(=O)NCc1ccccc1 -9.34%
COc1ccccc1Nc1nc(C)nc(N)c1S(=O)(=O)c1ccccc1 -7.41%
CC(C)CCNC(=O)c1cnc2sc(N3CCCCCC3)nn2c1=O -9.35%
COc1ccc(-n2nc3c(N4CCC(C(=O)N5CCC(C)CC5)CC4)nnc(C)c3c2C)cc1 -9.4%
Cc1ccc(O)c(NC(=O)c2cc(-c3ccc(F)cc3)no2)c1 -4.86%
COc1ccc(CNC(=O)c2ccc(Cn3c(=O)c4cccn4c4cccnc43)cc2)c(OC)c1 -2.98%
CCc1ccc(C2CC(=O)Nc3c2c(=O)n(C)c2ncnn32)cc1 (stereo unspecified) 15.2%
CC(C)n1nc(-c2cc3cc(O)ccc3[nH]2)c2c(N)ncnc21 -18%
CC(C)Oc1ccc(CNC(=O)C2=Cc3ccccc3OC2)cc1 -8.18%
COc1ccc(C(=O)c2cn(CC(=O)Nc3cc(C)ccc3C)c3nc(C)ccc3c2=O)cc1 -13.1%
CCOCCCN(Cc1ccco1)C(=O)c1cc2c(s1)-c1c(C)cccc1OC2 -9.2%
COc1ccc(OC)c(NC(=O)c2nc(S(=O)(=O)Cc3ccc(F)cc3)ncc2Cl)c1 -14.8%
CCOC(=O)N[C@H](Cc1c[nH]c2ccccc12)C(=O)Nc1cccc(Cl)c1 -9.37%
CCn1c(CN2CCN(C)CC2)nc2cc(NC(=O)c3ccc([N+](=O)[O-])cc3)ccc21 -13.8%
NC(=O)C1CCN(c2csc3ccc(F)cc3c2=O)CC1 -11.8%
COc1ccc(N2CCN(C(CNC(=O)c3ccc(OC)c(OC)c3)c3cccnc3)CC2)cc1 (stereo unspecified) -7.42%
Cc1ccc(NC(=O)CN(Cc2ccccc2)S(=O)(=O)c2ccc3nc(C)sc3c2)c(C)c1 -17.3%
Cc1ccc(-c2nc(CSc3nnc(C)n4c3cc3occc34)c(C)o2)cc1 -7.99%
CCCCSc1nnc2c(n1)OC(c1ccc(Br)s1)Nc1ccccc1-2 (stereo unspecified) -10.7%
COc1ccc2cc1Oc1cc3c(cc1OC)CC[N+](C)(C)[C@H]3Cc1ccc(cc1)Oc1c(OC)c(OC)cc3c1[C@@H](C2)[N+](C)(C)CC3 -15.8%
O=S(=O)(NCCc1nnc2ccc(SCc3ccccc3Cl)nn12)c1ccccc1 -3.01%
CCOc1ccc(-c2nc(-c3ccccc3)c(-c3ccccc3)[nH]2)cc1OCC 3.52%
COc1cc2nc(Nc3cccc(F)c3)nc(N)c2cc1OC -8.24%
Cc1cccc2nc(-c3ccccn3)c(Nc3ccccc3)n12 -13.3%
CC(C)Cn1cc(NC(=O)N2CCN(c3cccc(C(F)(F)F)c3)CC2)c2ccccc2c1=O -22.6%
CCCCOC(=O)c1ccc(-n2nnc3c(sc4nc(C)cc(C)c43)c2=O)cc1 -6.7%
CN(C)c1ccc(CNC(=O)CCCN2C(=O)c3cccnc3Oc3ccc(Cl)cc32)cc1 -9.33%
N#Cc1ccccc1CSc1nnc(-c2ccc(Br)cc2)o1 -7.11%
O=C1CSC2(C(=O)N(Cc3cccc(C(F)(F)F)c3)c3ccccc32)N1c1ccc(F)c(F)c1 (stereo unspecified) -22.3%
Cc1ccc(CNC(=O)Cn2ccn(-c3cccc(Cl)c3)c(=O)c2=O)cc1 -7.87%
O=C(NCc1ccccc1Cl)c1nnc(Cc2cccc(F)c2)o1 -9.26%
Cc1ccc2oc(-c3ccc(C)c(NC(=O)/C=C/c4ccco4)c3)nc2c1 -4.02%
Cc1ccc2c(CC(=O)N(Cc3ccc(N(C)C)cc3)Cc3ccco3)coc2c1C -7.52%
COc1cccc(-c2cc(C(F)(F)F)n3ncc(C(=O)OC(C)C)c3n2)c1 -5.01%
NC(=O)N1c2ccccc2C=Cc2ccccc21 -4.72%
Cc1ccc(-c2noc(CNC(=O)c3ccc(C)c(Cl)c3)n2)cc1 -8.65%
CCc1ccc(OCC(=O)N(Cc2ccc(C(C)C)cc2)C2CCS(=O)(=O)C2)cc1 (stereo unspecified) -8.08%
CCN(CC)C(=O)C1=C(C)Nc2nc3ccccc3n2C1c1cccc(OC)c1 (stereo unspecified) -4.33%
O=C(Nc1ccccc1C(F)(F)F)c1ccc(F)c(S(=O)(=O)N2CCc3ccccc3C2)c1 -18.9%
Cc1ccc(-n2c(C)cc(/C=C(\C#N)C(=O)Nc3ccc(C)c(C)c3)c2C)cc1 0.699%
Cc1c(Cl)cccc1NC(=O)C(=O)NCCc1csc(-c2ccc(C(F)(F)F)cc2)n1 -19.2%
Cc1ccccc1Cn1c(CN2CCC(C(=O)NCc3ccc(Cl)cc3)CC2)cc2ccccc21 -15.1%
O=S1(=O)c2ccccc2N(Cc2ccccc2F)c2ccccc21 -10.4%
CCCCN(C)C(=O)c1ccc2c(=O)n3nc(Nc4cc(C)ccc4C)sc3nc2c1 -8.57%
O=C(CNC(=O)c1ccc(F)cc1)OCc1cc(=O)n2ccsc2n1 -0.848%
CCN1CCc2c(sc(NC(=O)c3ccc(S(=O)(=O)N4CCCC(C)C4)cc3)c2C(=O)OC)C1 (stereo unspecified) -24%
COc1ccc(C(=O)Nc2ccc3oc(-c4cccc5c(Br)cccc45)nc3c2)cc1 -23.6%
CCOc1ccc(NS(=O)(=O)c2ccc3c(c2)NC(=O)CCS3)cc1 -11.1%
COc1ccc(CCNC(=O)c2ccc(-n3c(C)cc4c3CCC(C)C4)cc2)cc1OC (stereo unspecified) -11%
Cc1cc(C)cc(NC(=O)COc2cccc3c(=O)n(C)ccc23)c1 -6.66%
O=C(NCc1ccc2c(c1)OCO2)c1ccc2c(c1)N(Cc1c(F)cccc1Cl)C(=O)c1ccccc1S2 -19%
Cc1cc(C)c(OCC(=O)N(Cc2ccc(N(C)C)cc2)Cc2ccco2)c(C)c1 -6.99%
CC1=C(C(=O)OC2CCCC2)C(c2c(F)cccc2Cl)CC(=O)N1 (stereo unspecified) -7.32%
Cc1ccc(-c2cn3nc(N4CCCC(C(=O)NCc5ccccc5F)C4)sc3n2)cc1 (stereo unspecified) -1.75%
COc1ccc(-n2c(-c3cccc(F)c3)nc3c(cnn3-c3ccc(C)cc3)c2=O)cc1 -9.65%
Cc1ccc(-c2csc(-c3c(N)c(C(=O)c4ccc5c(c4)OCO5)n4ccccc34)n2)cc1 -19.6%
Cc1ccc(Cn2nc3n(c2=O)-c2cc(Cl)ccc2OC3)cc1 -9.65%
COC(=O)c1ccccc1NC(=O)Cn1c(=O)n(CCC(=O)NCc2ccc3c(c2)OCO3)c(=O)c2ccccc21 -10.9%
COc1ccc(C(=O)c2cn(CC(=O)Nc3cc(OC)cc(OC)c3)c3ccc(OC)cc3c2=O)cc1 -28.3%
COc1ccc(-c2nc3ccccc3o2)cc1NC(=O)Cc1ccc(Cl)cc1 -28.2%
Cc1cccc(N(C)C(=O)Cn2c(=O)oc3cc(S(=O)(=O)N4CCCCC4)ccc32)c1 -6.81%
Cn1ccnc1SCC(=O)Nc1cccc(Br)c1 -21.3%
CCOC(=O)c1c(S(=O)(=O)N2CCC(C(=O)NCc3cccc(OC)c3)CC2)c(C)n(C)c1C -16.5%
COc1ccc(N2CC(NC(=O)C3CCCCC3)CC2=O)cc1 (stereo unspecified) -13%
Clc1ccc(C(Cn2ccnc2)OCc2c(Cl)cccc2Cl)c(Cl)c1 (stereo unspecified) -8.23%
CCn1c(SCC(=O)Nc2cc(C)ccc2F)nnc1-c1ccccc1O -11.5%
CCN(c1ccc(OC)cc1)S(=O)(=O)c1ccc2[nH]c3c(c2c1)CCCCC3 -30.2%
COC(=O)c1ccc(NC(=O)Cn2c(=O)oc3ccccc32)cc1 -3.98%
NC(=O)c1cc(S(=O)(=O)NCc2cccc(Br)c2)cs1 -0.0471%
COc1ccc(C2CC(=O)c3cc(-c4nc(-c5cccc([N+](=O)[O-])c5)cs4)c(=O)n(-c4ccccc4N)c3C2)cc1 (stereo unspecified) -6.01%
Cc1ccc(CNC(=O)c2ccc3c(c2)CCN3S(=O)(=O)c2ccc(Br)cc2)cc1 -8.17%
COc1ccccc1CNC(=O)c1ccc(N2CCCC2)c(NC(=O)NCc2ccc(C)cc2)c1 -7.33%
Cc1ccccc1CNC(=O)Cn1c(=O)c2cccn2c2cccnc21 -13.4%
CC(=O)c1ccc(NC(=O)C2CCN(S(=O)(=O)c3ccc4[nH]c5c(c4c3)CCCCC5)CC2)cc1 -12%
CCCOc1ccc(C2c3c(oc4ccccc4c3=O)C(=O)N2c2nnc(C(C)C)s2)cc1 (stereo unspecified) -3.92%
CCOC(=O)CNC(=O)N1CCN(S(=O)(=O)c2ccc3c(ccn3C)c2)CC1 -2.84%
COc1ccc(CC(=O)N2CC(=O)Nc3ccc(F)cc3C2c2ccccc2)cc1 (stereo unspecified) -24.9%
COC(=O)c1ccccc1NC(=O)c1ccc(CN2CC(=O)N3CCCCC3C2=O)cc1 (stereo unspecified) -14.9%
COc1ccc(C2=NC(c3ccccc3)=Nc3ccc(C)cc3N2)cc1 -30.5%
CCc1ccc(CNC(=O)C2CCN(c3nn4cc(-c5ccc(OC)cc5)nc4s3)CC2)cc1 -10.8%
CCC(C)NC(=O)c1c2c(nc3ccccc13)C(=O)N(C1CCCCC1)C2 (stereo unspecified) -0.311%
O=C(CSc1n[nH]c(-c2ccc(F)cc2)n1)N1CCN(c2ccc(F)cc2)CC1 -13.5%
CCOC(=O)c1cc(S(=O)(=O)Nc2ccccc2)[nH]n1 -16.2%
COc1ccccc1N1CCN(CC(O)COc2ccc(Cl)c(C)c2)CC1 (stereo unspecified) -13.9%
COc1ccc(NC(=O)CSc2nnc(-c3ccncc3)n2-c2ccccc2)cc1 -7.11%
CN1CCN(C(=O)c2ccc3c(c2)N(Cc2ccc(F)cc2)C(=O)c2ccccc2S3(=O)=O)CC1 -9.41%
Cc1ccc(CNC(=O)C2CCN(S(=O)(=O)N3CCCCC3)CC2)cc1 -0.907%
Cc1ccc(Cn2nnc3c(=O)[nH]c(C4CCN(C(=O)Cc5ccccc5F)CC4)nc32)cc1 -8.61%
CC(=O)c1c(C)oc2ccc(N(C(=O)Oc3ccccc3)S(=O)(=O)c3ccc(Cl)cc3)cc12 -17.9%
CCOc1ccc(CNC(=O)c2ccc3oc(=O)n(Cc4ccccc4)c3c2)cc1 -5.21%
COc1ccc(CCNC(=O)CCc2c(C)nc3c4c(C)cc(C)nc4nn3c2C)cc1OC -12%
CCc1cccc(NS(=O)(=O)c2c(C)[nH]c(=O)[nH]c2=O)c1 -8.91%
COc1cccc2c1cc1c(=O)n(CC(=O)N3CCN(c4cccc(C)c4C)CC3)nc(C)n12 -14.5%
CCOc1ccccc1Nc1nc2ccccc2c2nncn12 -9.26%
COc1ccc(OCC(=O)Nc2ccc(-c3nc4cc(C)cc(C)c4o3)cc2)cc1 -32.7%
